{
  "source": "paper PMC13083723",
  "about": "(Patterns, 2026)",
  "note": "Among all 5,400 compounds or so, about 190 (3.5%) showed an effect of 50% or more. The list shows a part of the results.",
  "data": [
    {"test_system": "Vero-E6", "assay": "primary screen, phospholipidosis by LipidTOX staining; higher = more effect of the substance", "settings": "10 µM", "in_short": "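Drug-induced phospholipidosis detected with HCS LipidTOX Red reagent in Vero-E6 cells. Compounds tested at 10 μM, with amiodarone (10 μM) as positive control and DMSO (0.1 v/v %) as vehicle.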", "units": {"result_ITMP": "%"}, "values": [
      {"smiles": "CC(=O)Oc1ccccc1C(=O)O", "result_ITMP": -1.07},
      {"smiles": "CC(Oc1ccc(Cl)cc1)c1ccnc2ncnn12", "note": "(centres unmarked)", "result_ITMP": -0.09},
      {"smiles": "CC1=C(/C=C/C(C)=C/C=C/C(C)=C/C=C/C=C(C)/C=C/C=C(C)/C=C/C2=C(C)C(=O)[C@@H](O)CC2(C)C)C(C)(C)C[C@H](O)C1=O", "result_ITMP": -6.09},
      {"smiles": "O=C(O)CNC(=O)c1c(O)c2ccccc2n(Cc2ccccc2)c1=O", "result_ITMP": 3.5},
      {"smiles": "CNS(=O)(=O)CCc1ccc2[nH]cc(C3CCN(C)CC3)c2c1", "result_ITMP": -5.61},
      {"smiles": "CCCCNC(=O)[C@@H]1Cc2ccccc2N1C(=O)[C@@H](N)CC", "result_ITMP": -1.01},
      {"smiles": "O=C(Nc1nc2cccc(-c3ccc(CN4CCS(=O)(=O)CC4)cc3)n2n1)C1CC1", "result_ITMP": 0.26},
      {"smiles": "COc1ccc2ccc(=O)oc2c1CC=C(C)C", "result_ITMP": -1.25},
      {"smiles": "N=C(N)NS(=O)(=O)c1ccc(N)cc1", "result_ITMP": -0.19},
      {"smiles": "Cc1cc(CN2CCN(c3c(Br)cnc4[nH]c(-c5ccc(N6CCN(C)CC6)cc5)nc34)CC2)no1", "result_ITMP": -0.42},
      {"smiles": "CSCC1CN(/N=C/c2ccc([N+](=O)[O-])o2)C(=O)O1", "note": "(centres unmarked)", "result_ITMP": 0.39},
      {"smiles": "COc1cc2nc(N(C)CCCNC(=O)C3CCCO3)nc(N)c2cc1OC", "note": "(centres unmarked)", "result_ITMP": 1.62},
      {"smiles": "O=C(Nc1cc(C(F)(F)F)cc(C(F)(F)F)c1)c1cnc(Cl)nc1C(F)(F)F", "result_ITMP": -2.22},
      {"smiles": "CCN(CC)c1ccc(C(=C2C=CC(=[N+](CC)CC)C=C2)c2ccccc2)cc1", "result_ITMP": -12.8},
      {"smiles": "CNCCn1c(=O)c2cc(OC)c(OC)cc2c2cnc3cc4c(cc3c21)OCO4", "result_ITMP": 0.03},
      {"smiles": "Oc1ccc2ccccc2c1SSc1c(O)ccc2ccccc12", "result_ITMP": 9.07},
      {"smiles": "Clc1ccc(Cn2c(CN3CCCC3)nc3ccccc32)cc1", "result_ITMP": 8.68},
      {"smiles": "CCCCc1nc2cc(/C=C/C(=O)NO)ccc2n1CCN(CC)CC", "result_ITMP": -5},
      {"smiles": "CC(C)OC(=O)Nc1cccc(Cl)c1", "result_ITMP": -2.26},
      {"smiles": "O=C(O)/C=C/c1ccc(O)c(O)c1", "result_ITMP": 1.17},
      {"smiles": "CC1(C)CC(=O)c2c(C(F)(F)F)nn(-c3ccc(C(N)=O)c(N[C@H]4CC[C@H](O)CC4)c3)c2C1", "result_ITMP": -1.47},
      {"smiles": "CC(C)c1ccc2c(c1)CC[C@H]1[C@](C)(CN)CCC[C@]21C", "result_ITMP": 80.5},
      {"smiles": "C[N+](C)(C)CCCCCCCCCC[N+](C)(C)C", "result_ITMP": 2.31},
      {"smiles": "c1ccc2nc(N3CCNCC3)ccc2c1", "result_ITMP": 9.23},
      {"smiles": "CC(=O)O[C@]1(C(C)=O)CC[C@H]2[C@@H]3CCC4=CC(=O)CCC4=C3[C@@H](c3ccc(N(C)C)cc3)C[C@@]21C", "result_ITMP": -0.56},
      {"smiles": "COc1cc(C(=O)N(CCC2CCCN2C)C/C(C)=C/c2ccccc2F)cc(OC)c1OC", "note": "(centres unmarked)", "result_ITMP": 37.9}
    ]}
  ]
}
